Assay results as given in the supplement of paper PMC3334620.
Whole data set: some 33,000 sequences, median “E-score (-0.5 to 0.5)” near -0.016, cut for the highest 2% near 0.32. Some of the results follow.

Molecular target: T1, Stp1 (UniProt B3LFK1)
T1 sequence: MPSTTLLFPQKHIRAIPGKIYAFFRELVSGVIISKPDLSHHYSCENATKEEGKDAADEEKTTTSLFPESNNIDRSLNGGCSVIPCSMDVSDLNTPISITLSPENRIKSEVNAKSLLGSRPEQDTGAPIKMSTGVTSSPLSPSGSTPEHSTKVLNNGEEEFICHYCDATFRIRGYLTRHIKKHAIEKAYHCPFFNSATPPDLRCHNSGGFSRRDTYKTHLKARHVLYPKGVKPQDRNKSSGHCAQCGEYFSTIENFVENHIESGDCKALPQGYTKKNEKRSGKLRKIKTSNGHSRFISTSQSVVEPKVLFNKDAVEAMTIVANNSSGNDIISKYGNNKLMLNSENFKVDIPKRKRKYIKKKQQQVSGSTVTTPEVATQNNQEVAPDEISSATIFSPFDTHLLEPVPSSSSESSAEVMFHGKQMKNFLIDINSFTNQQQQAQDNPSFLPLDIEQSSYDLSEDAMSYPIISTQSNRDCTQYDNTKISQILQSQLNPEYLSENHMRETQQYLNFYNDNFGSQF
Test: PBM E-score (8-mer binding enrichment) (E-score (-0.5 to 0.5)); higher = stronger / more preferred TF binding; most listed sequences are background and not binding sites
Conditions: protein concentration: 200 nM; construct: GST-full length
Experimental: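 Universal 'all 10-mer' protein binding microarrays (Agilent AMADID 015681) probed with GST-tagged S. cerevisiae TFs (full-length or DBD) made by in vitro transcription/translation (PURExpress), about 100-200 nM. Bound TF was detected with fluorescent anti-GST. Each ungapped 8-mer (which stands for itself and its reverse complement) is scored by the PBM enrichment score (E-score), a modified Wilcoxon-Mann-Whitney statistic from -0.5 to +0.5, computed with the Universal PBM Analysis Suite. Scale: above 0.35 generally sequence-specific binding.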

Sequence	PBM E-score
ATGGTCAC	-0.0726
CGCGAGAG	0.0481
ACGGAAAA	0.127
AACCGGAC	-0.168
TAATCGGA	0.126
ATCCTCGA	-0.0372
CTCACAAC	0.219
CGTTAAGA	0.104
TGTGGTAA	0.0259
AGTCACAT	-0.0417
ACCTGCCA	-0.0478
GGCTGCAA	0.06
TCTATGAA	0.1
CCAAAACA	-0.022
CCACAGAG	0.0573
ATCCCAGA	-0.151
ACATTCCA	-0.0541
TGCTTCAA	0.0325
ATGTACCC	-0.0943
ACAACCAG	0.0579
TAAAACGA	-0.104
AATAGAGT	-0.0387
CAAGTGAG	-0.212
CAATGTAA	0.147
CTCCACAG	-0.0914

Sequence	PBM E-score
CGCGATGA	-0.115
AATCGAGG	0.0389
AATGTCTG	-0.15
TCCCGTCA	-0.193
ATTAATCA	0.197
GAACGACC	-0.446
CCTGAAGA	0.134
TCATGACA	0.0942
AAAACCGA	0.165
AGCAGGGA	-0.144
CTAACTAG	0.185
CCCATCCC	-0.0306
CCTGCGAA	0.0686
GCGTCGAA	0.185
CAGCAGAA	0.0405
CACACACA	0.132
AGGCACAT	0.276
AATGTATC	0.124
AGAAGAAC	-0.112
CGCATGAA	0.0568
AAACATCC	-0.0685
CTACACGA	0.0596
AACATGAG	-0.0339
ATGGCAAA	0.197
AGGGATGC	-0.276

Sequence	PBM E-score
AAATTACG	0.0279
ACGAACTG	-0.0676
ATTTGTCG	0.146
ACTATGAC	-0.161
GACTATGC	0.0992
CCTATCCA	-0.178
ACCTTGAA	-0.0465
CCGGAGCC	0.106
GCCTGGCC	-0.131
ATACGATA	0.134
AAGCCTTG	0.0913
ACGTAAGT	-0.0623
ATGGATGA	-0.2
GACCACCC	-0.319
TACACGAA	0.197
ATCCGTTG	0.0915
AGGGCTAT	-0.325
ACCTAGTC	-0.201
TCACATCA	0.0347
CCTCATGA	0.116
AACGTATG	-0.0401
ACCACCCG	-0.166
AGGAGTTA	-0.0828
TACGGGAA	-0.0475
CGGGAGAA	-0.111

Sequence	PBM E-score
CAAGAGGG	-0.0331
ACTAATCA	0.093
CAATTTCG	-0.094
AAAGAGAG	-0.0373
ACTAGCGC	-0.0687
CCCGGAAA	0.00798
CAGGATCG	-0.06
CCTGGAAG	-0.162
ACACCGAG	-0.221
ACGACATC	-0.223
CACTACCC	-0.194
ACTGGCGA	-0.0364
AATGGAAG	-0.122
CTGCCGAA	0.127
TCAAGAGA	-0.0071
ATCGCTCC	-0.133
CCCATCGG	-0.0927
AGGCTCTA	0.15
CTCCGACA	-0.0252
ACTCTTGG	-0.0882
GCGCGTAC	0.27
CAGCCCGG	-0.147
AGTCATCC	-0.239
CATAAGGA	-0.0131
GTTGGATA	0.0451

Sequence	PBM E-score
ATAGGGTG	-0.177
AACTGATC	0.00151
CCGCAACG	0.239
ATTATCAA	0.117
TCATATCA	0.0845
CCATCCAC	-0.0981
CGCTGACC	-0.0741
AGTTAAGA	0.13
GACTGGTA	-0.131
AGCACTTG	-0.266
AAACGCAG	-0.0288
AAGTTCAG	0.0667
CTAGCACC	-0.101
ACCTTCCC	-0.206
GGGGTTAC	-0.236
CTTGGACC	-0.247
CGGGAATA	0.0616
AGCAGAAC	-0.0297
CGTATTGC	0.31
ACGTTGGC	-0.196
GACCATAC	-0.0929
GGCGACCC	-0.127
GTACCGGA	-0.186
CCGGGATA	-0.16
CGCCGTCC	0.443

Sequence	PBM E-score
GGGGGTTA	-0.364
AGTACTCA	-0.181
AGCATGCG	0.016
CCGGTCTC	-0.191
ACTAGAGA	0.0388
CTATGTGC	-0.00165
AGTCGTGA	-0.212
CGGGCGAC	-0.18
CAAGTGTA	0.0361
AAGTTGGT	0.0835
ACAATCCC	-0.122
GCGCGCAA	0.241
CTACTATA	0.0795
ACAAGGAA	0.112
CGGAGGTC	-0.113
CAATTTGA	0.142
TACAACGA	0.0239
ATAGCCCA	-0.135
CCCCGCGA	-0.109
CCCTGACA	-0.176
GAGGACAA	-0.101
CCAGCTGC	-0.0237
GATTTGAC	0.121
AATCTATG	0.159
AGCGTGGC	0.0819

Sequence	PBM E-score
CTGTCGGC	-0.0349
CATAGTTA	-0.0909
ACTTCGCT	-0.0565
ATAAGCTC	-0.0907
CGAAACCC	0.011
ACACGCTG	-0.0206
CTCCGCCA	-0.187
GAGGGGCC	-0.22
CGATCCCG	-0.169
TATGGTGA	0.0568
AAGGATTC	-0.0723
CAAACTAA	0.22
GCTCAGCC	-0.123
GGGACCAA	-0.143
ACTTGCCC	-0.2
AGTAGTAG	-0.0597
CCTTACAA	0.175
AATATACT	0.13
AACACGTC	-0.0601
AGGGTATC	-0.0323
AACAACCT	-0.0862
AGATATAT	0.22
